Laboratory results reported in PubChem BioAssay (NCI).
Where “and” joins values, the source holds several entries; their conditions need not be identical. Equal values may be shown once.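 A five-concentration, 48-hour dose response in 96-well plates underlies each endpoint, interpolated linearly between surrounding concentrations. GI50 marks 50% less growth. TGI marks complete inhibition of growth.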 Numbered stars: 1 amine (or outer) side, 2 acyl side, 3 side chain; on linkers, the order of the positions; unused ones are H or OH. Bridge positions count the residues as written; N and C are the ends. Square brackets hold non-standard residues; d marks the D form. Peptide text beside a SMILES is read from it. * marks the point of attachment. ξ: configuration not given here. X30 = CCC(C)C(N[*:1])C(O)CC(=O)O[C@H](C(=O)C(C)C(=O)[*:2])C(C)C; NMeY = CN[C@@H](Cc1ccc(O)cc1)C(=O)O; ξNMeL = CNC(CC(C)C)C(=O)O; Cbz = O=C(OCc1ccccc1)*; Boc = CC(C)(C)OC(=O)*; Aib = CC(C)(N)C(=O)O; ξT = CC(O)C(N)C(=O)O; OBn = c1ccc(CO*)cc1; OtBu = CC(C)(C)O*; βAla = NCCC(=O)O

System: NCI-H322M lung
Assay: inhibition of tumour cell growth, NCI panel, 48 h

| SMILES | GI50 | TGI [µM] |
| --- | --- | --- |
| COc1cc(OC)c(/C=C/c2ccc3ccccc3[n+]2C)c(OC)c1 | 2.4 µM | 13 |
| CC(=O)NC(CCCCNC(=O)OCc1ccccc1)C(=O)NCc1ccccc1 (stereo not drawn) |  | > 100 |
| Cc1ccc(O)c(C2=NNC(c3cccc(Br)c3)C2)c1 (stereo not drawn) |  | > 100 |
| O=c1oc2ccccc2c(O)c1/C=N\c1nc(-c2ccccc2)cs1 |  | > 100 |
| CCCCC#COP(=O)(OCC)OCC |  | > 100 |
| COc1cc(-c2nc3ccc(C)cc3[nH]2)ccc1OCC(=O)N=Nc1c(O)[nH]c2ccccc12 | 1.67 µM | 3.31 |
| O=C(NCCO)c1ccc(Cl)cc1 |  | > 100 |
| CC#CC(O)(C(=O)OC1CCCN(C)C1)C1=CC=CCC1 (stereo not drawn) |  | > 100 |
| CCC(=O)c1cn(C)c(=O)c2ccccc12 |  | > 100 |
| CCOC(=O)C(O)(NC(C)=O)C(F)(F)F (stereo not drawn) |  | > 100 |
| CSCCC(NC(=O)OC(C)(C)C)C(=O)NCCNc1ccc(NCCNC(=O)C(CCSC)NC(=O)OC(C)(C)C)c2c1C(=O)c1ccccc1C2=O (stereo not drawn) |  | 32.5 |
| COc1cc([C@H](C)c2ccc3ccccc3c2)cc(OC)c1OC | 0.762 µM | > 100 |
| COC(=O)c1c(-c2ccccc2)cc2c3cc(-c4ccccc4)c(C(=O)OC)n3c3ccccc3n12 |  | > 100 |
| O=C(Nc1ccc(Cl)cc1)Nc1ccc(Cl)c(Cl)c1 | 4.53 µM | > 100 |
| CC(C)(C)OC(=O)CC(NC(=O)OC(C)(C)C)C(=O)NC(CCCCNC(=O)OCc1ccccc1)C(=O)NC(C)(C)C(=O)NCCC(=O)OCc1ccccc1 (stereo not drawn) (Boc-D(OtBu)K(Cbz)[Aib][βAla]-OBn; configuration not given here) |  | > 100 |
| Cc1c(CCCl)c(=O)n2c([nH]c3ccccc32)c1C#N |  | 3.16 |
| Cc1cc2nc3c(=O)n(C)c(=O)nc-3n(-c3ccc(Cl)cc3)c2cc1C |  | 47.3 |
| C[CH2][Sn]1([CH2]C)[O]C(=O)[O][Sn]([CH2]C)([CH2]C)[O]1 | 32.2 µM | > 86.2 |
| CCOC(=O)c1c(N2CCOCC2)[nH]c(=O)c(C(c2ccc(OC)cc2)c2c(O)c(C(=O)OCC)c(N3CCOCC3)[nH]c2=O)c1O |  | > 100 |
| Cc1cc(S(=O)(=O)Nc2nc(N)nc(N3N=CCC3C)n2)c(S)cc1Cl (stereo not drawn) |  | > 10 |
| O=C(/C=C/c1ccc([N+](=O)[O-])cc1)c1nc2ccccc2[nH]1 |  | > 100 |
| CC[N+](C)(CC)CCN1C(=O)c2ccccc2S1(=O)=O |  | > 100 |
| CCCCN(c1ccccc1)c1ncnc2c1cnn2C |  | > 100 |
| CCOC(=O)CCC(=O)C1c2cccc(O)c2C(=O)c2c(O)cccc21 |  | 3.63 |
| O=C(Oc1ccc(O)c2c(=O)n3c(cc12)[nH]c1ccccc13)c1ccccc1 | 22.6 µM | 57.5 |

| SMILES | GI50 | TGI [µM] |
| --- | --- | --- |
| O=C1C=C(c2c(O)ccc3ccccc23)c2ccccc2C1=O |  | 30 |
| CC(=O)NC1=N/C(=C/c2cc([N+](=O)[O-])ccc2O)CN1C |  | > 100 |
| O=C1NC(N/N=C\c2ccccc2)=N/C1=C/c1ccc(Cl)cc1 |  | > 100 |
| CCCCCCCCCCCCCCCCCCOCC(O)COP(=O)(O)OCC1OC(n2cc(F)c(=O)[nH]c2=O)CC1O (stereo not drawn) |  | 25.2 |
| CCN(CC)CCCCC1CCN(CC(=O)N2CC(C)C(=O)Nc3ccccc32)CC1 (stereo not drawn) |  | > 100 |
| COc1cccc(-c2nc3sccn3c2-c2ccnc(NCCNC(=O)Nc3cccc(C(F)(F)F)c3)n2)c1 | 7.23 µM | > 100 |
| CCCCNc1nc(NC(C)(C)C)nc(NC(C)(C)C)n1 | 62.7 µM | > 100 |
| O=C(O)c1ccccc1/C=N\NC1=NCCCCN1 |  | > 100 |
| C=CCn1c(C)nc2cc(Nc3nc(Nc4ccc5nc(C)n(CC=C)c5c4)c4ccccc4n3)ccc21 | 0.727 µM | 2.04 |
| O=[N+]([O-])c1ccc2[nH]cc(-c3c4ccsc4cc4[nH]c5ccc([N+](=O)[O-])cc5c34)c2c1 | 1.34 µM | 6.07 |
| Clc1nc(Oc2ccccc2)nc(-c2cn(-c3ccccc3)c3ccccc23)n1 | 18.8 µM | 48.1 |
| Nc1nc(-c2cccc([N+](=O)[O-])c2)c(Br)c(=O)[nH]1 |  | > 100 |
| O=C1c2cc(Br)ccc2-c2c1c1ccc([N+](=O)[O-])cc1c(=O)n2CCCCl | 0.513 µM | 14.8 |
| COC(=O)C1(C(=O)OC)N=C(C)OC1C(C)C (stereo not drawn) |  | > 100 |
| O=C(O)c1ccc(Nc2nc3cc(C(F)(F)F)ccc3nc2C(=O)O)cc1 |  | > 100 |
| CCC(C)C1NC(=O)C(NC(=O)C(CC(C)C)N(C)C(=O)[C@@H]2CCCN2)C(C)OC(=O)[C@H](Cc2ccc(OC)cc2)N(C)C(=O)[C@@H]2CCCN2C(=O)[C@H](CC(C)C)NC(=O)C(C)C(=O)[C@H](C(C)C)OC(=O)CC1O (stereo partly drawn) (H-P[ξNMeL][ξT][X30]LP[NMeY](Me); ester 3-C) |  | 0.0101 |
| CCCCCCCCCCCCCCCCNc1nc(=O)n(C2CC(O)C(CO)O2)cc1F (stereo not drawn) |  | 25.4 |
| COc1cc(C2c3cc4c(cc3[C@@H](Nc3ccc(C(=O)O)cc3)C3COC(=O)[C@H]23)OCO4)cc(OC)c1O (stereo partly drawn) | 36.4 µM and > 17.5 µM | > 100 |
| CCOc1ccc(/C=C/C(=O)c2ccccc2)cc1 | 26.7 µM | 75.3 |
| COc1cc(/C=C2/SC(c3ccccc3)N(c3cccc([N+](=O)[O-])c3)C2=O)cc(OC)c1OC (stereo not drawn) |  | > 100 |
| N#CCCN(CCCN(C(=O)Nc1ccccc1)c1ccccc1)C(=O)Nc1ccccc1 |  | > 100 |
| Cc1ccc(C(=O)c2oc3ccc4c(C)cc(=O)oc4c3c2C)cc1 | 45.9 µM | > 100 |
| COc1cc(/C=C/c2cc(C(F)(F)F)[nH]c(=O)n2)ccc1OCc1ccccc1F | 8.23 µM | 22.3 |
| COc1cc2c(cc1OCc1ccccc1)N=C[C@@H]1C/C(=C/C(=O)NCCCN3C(=O)c4cccc5cccc(c45)C3=O)CN1C2=O | 2.04 µM | 8.2 |
| CN1CCN(Cc2ccc(NC(=O)c3cncc(C#Cc4cnc(N)c5ccc(F)cc45)c3)cc2C(F)(F)F)CC1 | 1.4 µM | 5.33 |

| SMILES | GI50 | TGI [µM] |
| --- | --- | --- |
| O=c1ccn(C2OC(CO)C(O)C2O)c(=O)[nH]1 (stereo not drawn) | > 1000 µM | > 1000 |
| Cc1nc2ccc(C(F)(F)F)cc2nc1Nc1ccc(Cl)c(Cl)c1 |  | 25.4 |
| CSc1ncc2c(n1)-c1ccccc1OC2N1CCCC1 (stereo not drawn) |  | > 100 |
| CCOC(=O)C(C(=O)Cc1ccccc1)c1ccccc1 (stereo not drawn) |  | > 100 |
| CCOC(=O)C(C)(C)Oc1ccc2c(=O)cc(-c3ccc(Cl)cc3)oc2c1 |  | > 100 |
| NC(=O)CC(Nc1ncc2c(n1)-c1ccccc1OC2)C(=O)O (stereo not drawn) |  | > 100 |
| O=C1C(Br)=C[C@H]2C3C=CC(Br)(C3=O)[C@@H]12 (stereo partly drawn) |  | 31 |
| COc1cc2nc(-c3ccc(C(F)(F)F)cc3)cc(OCCCN3CCOCC3)c2cc1OC | 10.5 µM | 22.6 |
| CC(C)c1ccc(Cc2cnc(NC(=O)c3cc(Br)cs3)s2)cc1 | 7.17 µM | > 100 |
| CC1=CSC2=NC(c3ccc(Cl)c(Cl)c3)=CC(c3ccc(Cl)cc3)N12 (stereo not drawn) | > 100 µM | > 100 |
| CCN(CC)CCn1c2c3ccccc3ccc2c2oc(=O)c3ccccc3c21 |  | > 100 |
| CSc1nncc(-c2cc3c(c(SC)n2)CCC3)n1 |  | > 100 |
| CC(=O)OCC1OC(n2c(-c3ccccc3)cc(-c3ccco3)c(C#N)c2=O)C(OC(C)=O)C(OC(C)=O)C1OC(C)=O (stereo not drawn) |  | > 100 |
| Cc1cc(/C=C2\SC(=Nc3ccccc3)N(C3CCCC3)C2=O)c(C)n1-c1ccc(Cl)cc1 | > 100 µM | > 100 |
| COC(=O)C(C)Sc1nc2cc(Cl)ccc2s1 (stereo not drawn) |  | > 100 |
| C=CCNC(=S)N1CC(C)C(=O)Nc2ccccc21 (stereo not drawn) |  | > 100 |
| O=C1c2ccccc2CC12Cc1ccc3c(c1C2)CCC3 (stereo not drawn) |  | 90.7 |
| CCCCCCNC(=O)C1=C(C)NC(C)=C(C(=O)NCCCCCC)C1 |  | > 100 |
| O=C(NCCNCCO)N/N=C/c1ccc(Cl)cc1 |  | > 100 |
| CC(C)n1c(=O)n(-c2ccccc2)n(C(C)(C)C)c1=O |  | > 100 |
| NC(=O)COc1ccccc1 |  | > 100 |
| CCOC(=O)C1=C(C)NC(=S)NC1c1cccc(O)c1 (stereo not drawn) |  | > 100 |
| Cc1[nH]c(-c2ccccc2)c(-c2ccc(Cl)cc2)c1C(=O)ONC(=O)c1ccccc1 |  | 22.7 |
| O=c1cc(-c2ccccc2)[nH]c2cccc(S)c12 |  | > 100 |
| c1ccc2c(c1)[I+]c1ccccc1-2 | > 50 µM | > 50 |

| SMILES | GI50 | TGI [µM] |
| --- | --- | --- |
| NC(N)=N/N=C/c1nc2sccn2c1[N+](=O)[O-] |  | 59.2 |
| O=c1cc(-c2ccccc2)[nH]c2cc(Cl)cc(Cl)c12 |  | > 100 |
| N#CC(C#N)=C(N)/C(C#N)=C\c1ccnc2ccccc12 |  | > 100 |
| Cc1cc2c(CC(=O)O)[nH]nc2c(C(=O)O)c1C |  | > 100 |
| CC1CC(c2ccccc2)=Nc2ccccc2S1(=O)=O (stereo not drawn) |  | 23.3 |
| COC(=O)C(COC(=O)/C=C/c1ccc(OC(C)=O)c(OC(C)=O)c1)OC(=O)/C=C/c1ccc(OC(C)=O)c(OC(C)=O)c1 (stereo not drawn) |  | 30.6 |
| COc1ccc(NC(=O)C2C(=O)N(c3ccc(OC)cc3)C(=O)/C2=N/O)cc1 (stereo not drawn) |  | 62.7 |
| CC(C)=CC(C(O)c1ccccc1)S(=O)(=O)c1nccn1C (stereo not drawn) |  | > 100 |
| Oc1ccc(N=Nc2ccc(Cl)cc2)cc1 |  | 37.3 |
| COc1cc(OC2OC(C)C(O)C(O)C2O)cc2oc(-c3ccc(O)cc3)c(CC=C(C)C)c(=O)c12 (stereo not drawn) | 16.6 µM | 47.6 |
| CCN(CC)CCCNc1ccc2nnn3c4ccc(O)cc4c(=O)c1c23 |  | 21.5 |
| C=CCc1cc2cccc(OC)c2oc1=O |  | > 100 |
| COC1/C=C/C(C)C(C(C)C(OC)C(C)CCC(=O)C(C)C(CCC(=O)O)OC)OC(=O)/C=C/C=C(\C)CC(OC)CC2=CC(=O)O[C@@H](C(C)C(OC)CC(OC)/C=C/C(C)C(OC)C1)[C@H]2O (stereo partly drawn) |  | > 5 |
| O=C(c1ccco1)N(C(=S)OCc1ccccn1)c1ccccc1 |  | > 100 |
| N#Cc1c2c(c(N3CCOCC3)n3c1nc1ccccc13)CCCC2 |  | 33.9 |
| N#CCc1nc(C#N)c(N)o1 |  | > 100 |
| Oc1ccc(Br)cc1Sc1cc(Br)ccc1O | 16.7 µM | 32.4 |
| CC(C)(C)N1Cc2ccccc2/C(=C/Sc2ccccc2)C1=O |  | 30.7 |
| COP1(=O)CC2C(Cl)(Cl)C2(C)C1 (stereo not drawn) |  | > 100 |
| O=C(Nc1ccccc1)c1ccc(Cl)c([N+](=O)[O-])c1 |  | 47.4 |
| CC(=O)N/C(=C\c1ccc(/C=C(\NC(C)=O)c2nc3ccc(Cl)cc3[nH]2)cc1)c1nc2ccccc2[nH]1 |  | > 100 |
| C/C=C/[C@H]1O[C@@](OC)([C@@H](C)[C@H](O)[C@H](C)[C@H]2OC(=O)/C(OC)=C/C(C)=C/[C@@H](C)[C@@H](O)[C@@H](C)[C@@H](O)[C@H](C)C/C(C)=C/C=C/[C@@H]2OC)CC(OC2CC(O)C(OC(N)=O)C(C)O2)[C@@H]1C (stereo partly drawn) |  | 21.2 |
